Test results from PMC6096091, “A two-domain folding intermediate of RuBisCO in complex with the GroEL chaperonin” (International Journal of Biological Macromolecules, 2018).

Molecular target: the molecule itself
Assay: cryo-EM structure; binary complex made by 100-fold dilution of acid-urea denatured RuBisCO into 0.1 uM GroEL_(D473C.His6) in 50 mM HEPES pH 7.5, 10 mM KOAc, 10 mM Mg(OAc)2, 5 mM DTT; GroEL 14-mer:RuBisCO monomer 1:2.5; 10 min at 24 °C; single particle cryo-EM, asymmetric reconstructions of 3 classes, 11–12 Å

B1: E. coli GroEL_(D473C.His6), D473C mutant of GroEL with 6 His tag modification on the mutated cysteine 473 (complex)
chain: not shown
modifications: 6-His-tag modification on the mutated cysteine 473
notes: GroEL chaperonin (large subunit of the GroE operon), Escherichia coli, D473C mutant; the fitted crystal structure is PDB 1OEL; Homo-14-mer of two back-to-back rings of 7; The His6 is a modification attached to the side chain of cysteine 473 (to favour side views), not a terminal tag; also called GroEL_(D473C-6His); GroEL 14-mer; source: expressed and purified as described [20]; copies: 14
binding result: binds
